Screen size: about 110,000 compounds; about 40 (0.04%) were called active. This list was built around the results that the source calls inconclusive (neither active nor inactive); the mix of calls is not that of the screen. The call rests on the fitted dose curve; in most records, active means well fitted curve in the direction sought with a large enough effect in the signal ratio (not every such curve was filed as active); inconclusive means small, poorly fitted or top-dose-only effect, or a change in a side signal; inactive means flat fitted curve, though single readings scatter; the % refers to the signal ratio. Potencies of inconclusive entries are doubtful fits and often do not repeat.
Experiment: IkB Signaling;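 on IkBa stabilization activation: 0% = basal untreated cells and 100% = reference inhibitor full response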
Details: ABC-DLBCL IkBa-CBG/CBR dual luciferase ratio (green luciferase fused to IkBa over red control in OCI-Ly3 lymphoma cells), 4 h; IkBa stabilization activation: at 57.1 µM (top of the series), scaled: untreated 0%, proteasome inhibitor 100% unless noted
Outline: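 In this assay, an IκBα–CBG68 fusion accumulates when IKK-driven degradation is blocked; native CBR normalizes for cell number. OCI-Ly3 cells were treated 4 h with compound and doxycycline, then green and red light read after Chroma-Glo addition.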
Potency means the concentration at half of the fitted maximal effect.

Row | Structure (SMILES) | IkBa stabilization activation | Potency
1 | COc1ccc(-c2noc(-c3ccc(NCCc4ccccc4)c([N+](=O)[O-])c3)n2)cc1OC | inconclusive: -0.265% [signal inhibitor] | 
2 | O=C(OCC(=O)c1c[nH]c2ccccc12)c1ccco1 | inactive | 
3 | CCOC(=O)c1ccc(NC(=O)c2csc3c2CCCCC3)cc1 |  | inconclusive: 10 µM [signal inhibitor]
4 | CCCCN(CC)S(=O)(=O)c1cccc2cccnc12 | inactive | 
5 | COc1ccc(CCn2c3c(c(=O)[nH]c2=O)C(NC(=O)c2ccccc2OC)(C(F)(F)F)C(=O)N3)cc1OC (stereo unspecified) | inactive | 
6 | Cc1ccc(-n2ccnc(NCCc3ccc(S(N)(=O)=O)cc3)c2=O)cc1C | inconclusive: 2.39% [signal activator] | 
7 | CCC1CCCCN1C(=O)CSc1nc2c([nH]c3ccccc32)c(=O)n1-c1cccc(OC)c1 (stereo unspecified) | inconclusive: -0.0646% [signal inhibitor] | 
8 | O=C(O)c1ccc2nc(-c3cc4cc(F)ccc4oc3=O)[nH]c2c1 |  | inconclusive: 1 µM [signal inhibitor, partial curve]
9 | Cn1ccc2c(OCC(=O)NCc3ccccc3Cl)cccc2c1=O | inconclusive: 11% [signal activator] | 
10 | CCc1ccc(CNC(=O)c2ccc3nc(C(C)C)oc3c2)cc1 | inconclusive: 3.03% [signal inhibitor] | 
11 | Nc1nc(N)nc(CCCCc2nc(N)nc(N)n2)n1 | inactive: 0.184% [at 11.4 µM, scaled: untreated 0%, proteasome inhibitor 100%] | 
12 | Cc1nn(-c2nc(-c3ccc(F)cc3)cc(C(F)(F)F)n2)c(C)c1Cl | inactive | 
13 | COc1ccc(OC(C)c2nc3ccccc3[nH]2)cc1 (stereo unspecified) | inconclusive: -0.356% [signal inhibitor] | 
14 | O=C(Nc1ccc2oc(-c3cccnc3)nc2c1)c1ccc(-c2ccccc2)o1 | inconclusive: 17.6% [signal inhibitor] | 
15 | O=C(COC(=O)C1CCN(S(=O)(=O)c2cccs2)CC1)c1cc2ccccc2o1 | inconclusive: 3.17% [signal inhibitor] | 
16 | Cc1ccc(N(CC(=O)N2CCN(c3ccc(Cl)cc3)CC2)S(=O)(=O)c2c(C)noc2C)cc1 | inactive | 
17 | CCn1c(CCNC(=O)c2cccs2)nnc1SCC(=O)c1ccc(OC)cc1 | inconclusive: 8.04% [signal inhibitor] | 
18 | COc1ccc(CCN2C(=O)c3cccnc3C2=O)cc1OC | inactive | 
19 | COc1ccc(CNc2nc(-c3cccc(NS(C)(=O)=O)c3)nc3ccccc23)c(OC)c1 | inactive: -3.2% [at 11.4 µM, scaled: untreated 0%, proteasome inhibitor 100%] | 
20 | COc1ccc(C2C(=O)N(C3CCCCC3)CC(=O)N2Cc2ccccc2Cl)cc1OC (stereo unspecified) | inactive | 
21 | COc1ccc(CN2COc3ccc4c(-c5ccc(OC)cc5)cc(=O)oc4c3C2)cc1 | inactive | 
22 | O=C(Nc1ccc(N2CCN(C(=O)c3ccc(Cl)cc3)CC2)cc1)c1ccc(Br)o1 | inconclusive: -1.24% [signal inhibitor] | 
23 | COc1ccc(Cn2ccnc2SCC(=O)NCc2ccccc2)cc1 | inactive | 
24 | CCOc1ccc(C(=O)Nc2ccc(S(=O)(=O)N3CCCCC3c3cccnc3)cc2)cc1 (stereo unspecified) | inconclusive: 4.18% [signal inhibitor] | 

Row | Structure (SMILES) | IkBa stabilization activation | Potency
25 | CCc1cccc(C)c1NC(=O)Cn1c(=O)cc(C(F)(F)F)c2c(C)nn(C)c21 | inconclusive: -0.418% [signal inhibitor] | 
26 | NCCCNCCCCNCCCN | inactive | 
27 | O=C(Nc1nnc(COc2ccc(Cl)cc2)s1)c1cccs1 | inactive | 
28 | Cc1ccc(N2CCN(C(=O)c3ccc4c(Cl)c5c(nc4c3)CCCC5)CC2)c(C)c1 | inconclusive: -0.221% [signal inhibitor] | 
29 | O=C(Nc1ccc(F)cc1F)c1c2c(nc3ccccc13)C(=O)N(C1CCCCC1)C2 | inconclusive: 2.72% [signal inhibitor] | 
30 | Cc1noc(C)c1S(=O)(=O)N(CC(=O)NCc1ccccc1Cl)c1ccc(C(C)C)cc1 | inconclusive: 0.845% [signal inhibitor] | 
31 | O=C(Nc1c(-c2ccccc2)nc2ccccn12)c1ccc(Br)cc1 | inconclusive: 4.71% [signal inhibitor] | 
32 | CC(C)(C)c1csc(NC2=NS(=O)(=O)c3ccccc32)n1 | inconclusive: 3.54% [signal inhibitor] | 
33 | COc1ccccc1NC(=O)C1CCN(S(=O)(=O)c2ccc3c(c2)oc(=O)n3C)CC1 | inconclusive: 1.53% [signal inhibitor] | 
34 | Cc1ccc(Cl)cc1Nc1nn2c(=O)c3ccc(C(=O)NCc4cccs4)cc3nc2s1 | inactive | 
35 | COc1cc(-c2nnc(SCC(=O)OC3CCCCC3)o2)cc(OC)c1OC | inconclusive: 12.4% [signal inhibitor] | 
36 | CCC(CO)Nc1ncnc2c1cnn2-c1ccc(C)cc1 (stereo unspecified) | inconclusive: 4.45% [signal inhibitor] | 
37 | CCOCCCn1c(SCC(=O)Nc2cccc(OC)c2)nc2ccccc2c1=O | inconclusive: 1.45% [signal inhibitor] | 
38 | O=C(NCc1ccc2c(c1)OCO2)c1ccc2c(c1)N(Cc1ccc(F)cc1)C(=O)c1ccccc1S2=O (stereo unspecified) | inconclusive: -0.462% [signal inhibitor] | 
39 | CCN(c1ccc(Cl)cc1)S(=O)(=O)c1nnc(NC(=O)C2CCCCC2)s1 | inactive | 
40 | CCOCCc1nn2c(=O)cc(COC(=O)c3cccs3)nc2s1 |  | inconclusive: 25.1 µM [signal inhibitor]
41 | CN1CCN(c2ccc(NC(=O)Cc3ccccc3)cc2)CC1 | inactive | 
42 | COc1cccc(Cn2c(=O)c(C)nc3cnc(N(C)C)nc32)c1 | inactive: 2.64% [at 11.4 µM, scaled: untreated 0%, proteasome inhibitor 100%] | 
43 | CCCCCn1c(=O)[nH]c2cc(C(=O)NCc3ccc(OC)cc3)ccc2c1=O | inactive | 
44 | CCNC(=O)C1CC(=O)N(Cc2ccc(F)cc2)C(=Nc2ccc(OC)cc2)S1 (stereo unspecified) | inactive | 
45 | Cc1cccc(CN2C(=O)CC(c3ccc(Cl)cc3)c3c(C)nn(-c4nc(C)cc(C)n4)c32)c1 (stereo unspecified) | inconclusive: 0.94% [signal inhibitor] | 
46 | COc1ccccc1N(CC(=O)Nc1ccccc1F)S(C)(=O)=O | inconclusive: 1.72% [signal inhibitor] | 
47 | CCCNc1nc(NCc2ccccc2OC)c2cnn(C)c2n1 | inconclusive: 2.28% [signal inhibitor] | 
48 | C=C(C)COc1ccc2c(C)c(CC(=O)OC)c(=O)oc2c1C | inactive | 

Row | Structure (SMILES) | IkBa stabilization activation | Potency
49 | COc1ccc(NC(=O)C2=CC(c3ccc4c(c3)OCO4)=NS(=O)(=O)N2C)cc1 | inconclusive: 2.47% [signal inhibitor] | 
50 | Fc1ccc(-n2cc(-c3ccccc3)c3c(NCCc4ccccc4)ncnc32)cc1 | inconclusive: -1.59% [signal inhibitor] | 
51 | COc1ccc(C)cc1NC(=O)C1COc2ccccc2C1 (stereo unspecified) | inactive | 
52 | COc1cccc(CNC(=O)c2oc3c(c2C)-c2nn(Cc4cccc(Cl)c4)cc2CC3)c1 | inconclusive: 0.0677% [signal inhibitor] | 
53 | CCOC(=O)N1CCC(n2c(SCC(=O)NCCC3=CCCCC3)nc3ccccc3c2=O)CC1 | inconclusive: 2.97% [signal inhibitor] | 
54 | Cc1[nH]n(-c2ccccc2)c(=O)c1-c1ccccc1 | inconclusive: 16.9% [signal inhibitor] | 
55 | CCn1nc(C(=O)OCC(=O)c2ccc3c(c2)OCCO3)c2ccccc2c1=O | inactive | 
56 | C/C(=C\C(=O)c1ccc(C)cc1)Nc1cccc(O)c1 |  | inconclusive: 15.8 µM [signal inhibitor, partial curve]
57 | COc1ccc(-c2nnc(COc3ccc4ccccc4c3)o2)cc1OC | inconclusive: 1.04% [signal inhibitor] | 
58 | CCOc1ccccc1CNC(=O)C1CCN(c2nc3ccccc3o2)CC1 | inconclusive: 6.31% [signal inhibitor] | 
59 | Cc1ccc(OCCn2c(CCNC(=O)C3CCCCC3)nc3ccccc32)cc1 | inactive | 
60 | Cn1c(=O)cc(OCC(=O)NCCCN2CCN(Cc3ccccc3)CC2)c2ccccc21 | inconclusive: 11.1% [signal activator] | 
61 | c1cncc(-c2nc(NCc3ccco3)c3ccccc3n2)c1 | inconclusive: -5.32% [signal inhibitor] | 
62 | COc1cccc(C(=O)NCc2cn3ccccc3n2)c1 | inconclusive: 0.62% [signal inhibitor] | 
63 | CCOc1ccc(OCC)c(NS(=O)(=O)c2c(C(=O)N3CCCCCC3)c(C)n(C)c2C)c1 | inactive | 
64 | O=C(CSc1nnc(-c2ccccc2)c(-c2ccccc2)n1)NC1CCCC1 | inconclusive: 6.34% [signal inhibitor] | 
65 | CCOc1ccc(C(=O)c2cn(CC(=O)Nc3ccc(F)cc3)c3cc4c(cc3c2=O)OCCO4)cc1 | inconclusive: 3.34% [signal inhibitor] | 
66 | C(=C\c1ccccc1)/CN1CCN(c2ncnc3c2oc2ccccc23)CC1 |  | inconclusive: 15.8 µM [signal inhibitor, partial curve]
67 | CCN(Cc1ccccc1)C(=O)CCc1c(C)nc2c(c(C)nn2-c2ccc(C)c(C)c2)c1C | inconclusive: -0.709% [signal inhibitor] | 
68 | Cc1ccc(NC(=O)c2oc3ccc(S(=O)(=O)N4CCCCC4)cc3c2C)cc1Cl | inconclusive: -1.03% [signal inhibitor] | 
69 | CCc1cccc(C)c1NC(=O)Cn1cc2c(n1)CCCC2 | inconclusive: 0.0228% [signal inhibitor] | 
70 | Cn1c(=O)c2c(-c3ccc(Br)cc3)n(CCc3ccccc3)cc2n(C)c1=O | inconclusive: -2.16% [signal inhibitor] | 
71 | CCc1cc2cc3c(cc2nc1SCC(=O)N1CCN(C(=O)c2ccco2)CC1)OCO3 | inconclusive: 1.67% [signal inhibitor] | 

— PubChem BioAssay AID445 (National Center for Advancing Translational Sciences (NCATS), 2006)
